About 200 (0.47%) of roughly 43,000 compounds were called active. Not shown: some 12% with an inconclusive outcome. Calls come from the whole dose curve; as a rule, active = well fitted cell-killing curve with a large enough effect; inconclusive = small, poorly fitted or top-dose-only effect, or effect the other way; inactive = flat fitted curve, though single readings scatter. Some of the results follow.
Assay: Cell viability qHTS assay in S16 Pmp22-F2sN cells; note: nearly all actives have a fitted effect of over 65% in size
Conditions: S16 Pmp22-F2sN Schwann cells (luciferase reporters placed in the Pmp22 gene) viability, CellTiter-Glo, 24 h; series mostly up to 57.5 µM; activity change, negative = cytotoxicity: at the top concentration
How it was run: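 Seed 500-1,000 S16 Pmp22-F2sN cells per well in phenol-red-free DMEM with 10% heat-inactivated FBS; pin-add 23 nL compound; incubate 24 h at 37C; add CellTiter-Glo, wait 15 min protected from light; read luminescence.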
% is set by controls: 0 for no effect and ±100 for the full control effect.

SMILES | activity change, negative = cytotoxicity
COc1ccc(Cl)cc1NC(=O)Cn1c(=O)n(CCCC(=O)NCCc2ccc(OC)c(OC)c2)c(=O)c2ccccc21 | inactive: -13.4%
O=C(CCSCc1cccc(F)c1)NCc1ccccc1 | inactive: 0.516%
CCOc1ccc(CNC(=O)c2cc3c(s2)-c2ccccc2OC3)cc1 | inactive: 1.19%
COc1cc(NC(=O)NC(C)c2c(-n3cccc3)sc3c2CCN(C)C3)cc(OC)c1 (stereo not drawn) | inactive: -1.9%
COc1cccc(-n2c(SCC(=O)N3CCCc4ccccc43)nc3c([nH]c4ccccc43)c2=O)c1 | inactive: 8.4%
CCc1ccc(S(=O)(=O)NCc2nc3cccnc3n2Cc2ccccc2Cl)cc1 | inactive: -9.84%
CCCOc1ccc(CNC(=O)Cn2cc3c(n2)-c2c(oc(C(=O)N4CCOCC4)c2C)CC3)cc1 | inactive: -0.478%
COc1cc(CN(C(=O)COc2ccccc2Cl)c2ccccn2)cc(OC)c1OC | inactive: 0.949%
CCn1c(C)c(C)c2cc(C(=O)N3CCN(c4cccc(C)c4C)CC3)ccc21 | inactive: 2.51%
O=C(CSc1cn(CCNC(=O)c2ccccc2F)c2ccccc12)Nc1ccc(F)cc1 | inactive: 8.12%
COc1cccc(N2C(=O)CSC23C(=O)N(CC(=O)Nc2cccc(Cl)c2)c2ccccc23)c1 (stereo not drawn) | inactive: -25.2%
CCC(CC)C(=O)N1CCc2cc(OC)c(OC)cc2C1COc1ccc(C(=O)OC)cc1 (stereo not drawn) | inactive: -4.61%
COc1ccc(C)cc1NC(=O)CSc1nc(=O)[nH]c2c1CCCC2 | inactive: -20%
CCOc1ccc(-n2c(=O)c3c4c(sc3n(CC(=O)NC(C)CC)c2=O)CCC4)cc1 (stereo not drawn) | inactive: 1.38%
O=S(=O)(c1ccc(Cl)cc1)c1nnn2c1nc(NCc1cccs1)c1sccc12 | inactive: 8.16%
CCOC(=O)c1ccc(N2C(=O)c3n[nH]c(-c4cccs4)c3C2c2cccc(OC)c2)cc1 (stereo not drawn) | inactive: -5.19%
CN(C)S(=O)(=O)N(CC(=O)NCCSCc1cccc(Cl)c1)c1ccccc1 | inactive: 18.4%
Cc1ccc(NC(c2nnc(-c3ccccc3)o2)c2ccccc2F)c([N+](=O)[O-])c1 (stereo not drawn) | inactive: -10.3%
Cc1ccc(-n2nnnc2CNC(=O)c2ccccc2F)cc1C | inactive: -0.518%
O=C(NCc1ccccc1Cl)c1ccc(CSCc2cccc(F)c2)o1 | inactive: -2.64%
O=C(NCc1ccc(Cl)cc1)c1ccc2c(c1)NC(=O)C(CS(=O)(=O)Cc1ccccc1Cl)N2 (stereo not drawn) | inactive: -4.23%
CCc1cccc(NC(=O)Cn2cc(C(=O)c3ccncc3)c(=O)c3cc(C)c(C)cc32)c1 | inactive: 1.72%
O=C(O)CCn1cnc2onc(-c3ccccc3Cl)c2c1=O | inactive: 2.66%
Cc1cccn2c(=O)cc(COc3ccc(NC(=O)c4cccc(F)c4)cc3)nc12 | inactive: -0.874%

SMILES | activity change, negative = cytotoxicity
CCC1CCCCN1C(=O)Cn1c(=O)n(CCCCCC(=O)NCc2ccc(F)cc2)c(=O)c2sccc21 (stereo not drawn) | inactive: 17.9%
O=C(Nc1c(C(=O)Nc2cccc(C(F)(F)F)c2)oc2ccccc12)c1cc(=O)c2ccccc2o1 | inactive: 5.69%
CCSc1nc(-c2ccc(Cl)cc2)nc2c1Cc1c(CO)cnc(C)c1O2 | inactive: -14.9%
CC1=C(c2ccc(Cl)cc2)S(=O)(=O)N=C1N1CCN(c2cccc(C(F)(F)F)c2)CC1 | inactive: -1.86%
COc1ccc(-c2cc(C(F)(F)F)n3nc(C(=O)Nc4cccc(C(F)(F)F)c4)c(Br)c3n2)cc1 | inactive: 4.03%
CCOC(=O)c1ccc(NC(=O)CCn2cnnn2)cc1 | inactive: 1.01%
COC(=O)c1cnc(N2CCN(c3ccccc3OC)CC2)c2ccccc12 | inactive: -15.4%
CCOC(=O)c1sc2ccccc2c1S(=O)(=O)NCc1ccc(F)cc1 | inactive: 2.25%
CC(C)C(=O)Nc1cccc(NC2=NS(=O)(=O)c3ccccc32)c1 | inactive: 4.42%
CCOC(=O)c1cccc(NC(c2nnc(-c3ccccc3)o2)c2ccccc2F)c1 (stereo not drawn) | inactive: -17.2%
Cc1ccc(C)c(N2CCN(c3nc4ccccc4c4nc(-c5cccnc5)nn34)CC2)c1 | inactive: 16.9%
Cc1ccc2c(c1)c(=O)c(C(=O)c1ccncc1)cn2CC(=O)Nc1ccccc1Cl | inactive: 2.91%
CCc1ccc(C2=CC(c3cccc(Br)c3)n3nnnc3N2)cc1 (stereo not drawn) | inactive: -3.93%
COc1ccc(CCNC(=O)CCCCCn2c(=O)[nH]c3cc(OC)c(OC)cc3c2=O)cc1OC | inactive: 2.28%
Cc1ccc(C)c(Cn2c(C)c(CNCc3ccc(F)cc3)c(C(=O)O)c2C)c1 | inactive: 6.81%
CC(=O)Nc1nnc(SCc2cc(=O)c3cccc(C)c3[nH]2)s1 | inactive: -7.34%
CC1=C(C(=O)Nc2ccc(C)cc2C)C(c2cccn2C)n2ncnc2N1 (stereo not drawn) | inactive: 6.17%
COc1ccc(NC(=O)CSc2nc(O)c(C/C=C/c3ccccc3)c(=O)[nH]2)cc1 | inactive: -5.09%
CCc1ccc(NC(=O)Cn2c(=O)oc3cc(S(=O)(=O)NCc4ccccc4)ccc32)cc1 | inactive: 14.3%
Cc1ccc(CNC(=O)C2CCCN(c3nnc(-n4c(C)ccc4C)s3)C2)cc1 (stereo not drawn) | inactive: 1.54%
CC(C)CCNc1nc2c(S(=O)(=O)c3ccc(Br)cc3)nnn2c2ccsc12 | inactive: 2.82%
CCc1cc2c(cc3c(=O)n(CC(=O)N4CCN(c5cc(Cl)ccc5C)CC4)nc(CC)n32)s1 | inactive: 15.3%
O=C(NCc1cccnc1)C(=O)NCC(c1cccnc1)N1CCN(c2ccccc2)CC1 (stereo not drawn) | inactive: -8.66%
CCCCCCc1cc2cc(-c3nnc(-c4ccc(C)cc4)o3)c(=O)oc2cc1O | inactive: -0.356%

Source: PubChem BioAssay AID1508642 (National Center for Advancing Translational Sciences (NCATS), 2021)
